Reference: the supplement of paper PMC10338343
± gives the standard deviation. The entries are a selection whose mix differs from that of the whole data set.

tested on: MIWI (PIWIL1) piRISC loaded with L1MC piRNA (30 nt); assay: pre-steady-state target cleavage rate (min^-1); MIWI and MILI are mouse PIWI proteins and EfPiwi is from a freshwater sponge; tags in brackets are library labels; higher = faster piRNA-guided slicing of the target; conditions: guide: L1MC piRNA 5'p-UAACUAAAUACUAUGCAAGCUGUAGGUCCU; auxiliary factor: 500 nM mouse GTSF1
Description: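 Cleave-'n-Seq: a library of target RNAs (target site embedded in constant flanks, ACAGCATTCCGCGTTAGTGATATCCG... 5' flank; DNA-blocked outside the site) at 0.1 nM was incubated with 1 nM active mouse MILI or MIWI piRISC (synthetic 5'-monophosphorylated piRNA guide) with or without 500 nM mouse GTSF1 at 33 °C for 1 min to 16 h. Uncleaved targets were sequenced and normalised to non-target controls, and the pooled three trials were fitted to a burst-and-steady-state model to give the pre-steady-state cleavage rate (min^-1; k3 is constrained to at most 1e-4). Sequence is the target site only; target names encode pairing extent (gX:gY) and contiguous / 1-mismatch / 2-mismatch / bulge geometry. Fits with R² ≤ 0 are excluded.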

| Sequence | pre-steady-state target cleavage rate |
| --- | --- |
| UCCUGGUACAGCUUGCAUUGUAUAUAGUUA | 0.122 ± 0.024 |
| UCCACCUACAGCUUGCAUAGUAAAAACAAA | 0.172 ± 0.043 |
| UCCUGGAUGUCGUUGCAUAGUAUUUGAGUUA | 0.0106 ± 0.0039 |
| UCGACCUACAGGUUGCAUAGUAAUUAGUUA | 0.76 ± 0.045 |
| UCCUGGAUGAGCUUGCAUAGUAUUUAGUUA [g2:g21:cont:t1A] | 0.91 ± 0.042 |
| ACGACCUACAGCUUGCAUAGUAUUUAGAAA | 0.619 ± 0.047 |
| AGGAGCUACAGCUUGCAUAGUAUAUAGUUA | 0.762 ± 0.069 |
| UCCUGGAUCAGCUUGGAUAGUAUAUAGUUA | 0.216 ± 0.026 |
| UCCAGGAACAGCUUGCAUAGUAUUUAGUAA | 0.57 ± 0.047 |
| UCCUGGAACAGCUUGCAUUGUAUUUACAAA | 0.0806 ± 0.023 |
| UCCUGGAAGAGCUUGCAUAGUAUUUAGAAA | 0.311 ± 0.041 |
| UCCUGGAACAGCUUGCAUUGAAUUUAGUUA | 0.108 ± 0.014 |
| UCGACCUACACCUUGCAUUGUAUUUAGUUA | 0.688 ± 0.024 |
| UCCACCUACAGGCUUGCAUAGUAUUUAGUUA | 0.685 ± 0.059 |
| UCCUGGAUGAGCUUGCAUAGUUUAUAGUUA | 0.0183 ± 0.0061 |
| UCCAGGAACAGCUUGCAUAGUAUUUAGUUA | 0.919 ± 0.029 |
| UCCUGGAUCAGCCUGCAUAGUAUUUAGUUA | 1.02 ± 0.045 |
| UCCACCUACAGCUAGCAUUGUAUUUAGUUA | 0.707 ± 0.027 |
| UCCUGGAUGAGCUAGCAUAGUAUUUAGAUA | 0.194 ± 0.025 |
| AGGACCUACAGCUUGCAUAGUAUAUAGAUA | 0.339 ± 0.049 |

same assay, conditions: guide: L1MC piRNA 5'p-UAACUAAAUACUAUGCAAGCUGUAGGUCCU; auxiliary factor: none (no GTSF1)

| Sequence | pre-steady-state target cleavage rate |
| --- | --- |
| UCCUGGUACAGCUUGCAUUGUAUAUAGUUA | 0.012 ± 0.0039 |
| UCGACCUACAGGUUGCAUAGUAAUUAGUUA | 0.0133 ± 0.0034 |
| UCCUGGAUGAGCUUGCAUAGUAUUUAGUUA [g2:g21:cont:t1A] | 0.0657 ± 0.013 |
| ACGACCUACAGCUUGCAUAGUAUUUAGAAA | 0.0289 ± 0.0092 |
| AGGAGCUACAGCUUGCAUAGUAUAUAGUUA | 0.0433 ± 0.0094 |
| UCCUGGAUCAGCUUGGAUAGUAUAUAGUUA | 0.0214 ± 0.0062 |
| UCGUGCUACAGCUUGCAUAGUAUUUAGUUA | 0.0704 ± 0.012 |
| UCCAGGAACAGCUUGCAUAGUAUUUAGUAA | 0.0391 ± 0.0081 |
| UCCUGGAACAGCUUGCAUUGUAUUUACAAA | 0.00315 ± 0.0021 |
| UCCUGGAAGAGCUUGCAUAGUAUUUAGAAA | 0.0061 ± 0.002 |
| UCCUGGAACAGCUUGCAUUGAAUUUAGUUA | 0.00911 ± 0.0042 |
| UCGACCUACACCUUGCAUUGUAUUUAGUUA | 0.0243 ± 0.0058 |
| UCCACCUACAGGCUUGCAUAGUAUUUAGUUA | 0.0335 ± 0.0066 |
| UCCUGGAUGAGCUUGCAUAGUUUAUAGUUA | 0.00406 ± 0.0023 |
| UCCAGGAACAGCUUGCAUAGUAUUUAGUUA | 0.07 ± 0.013 |
| UCCUGGAUCAGCCUGCAUAGUAUUUAGUUA | 0.0431 ± 0.008 |
| UCCACCUACAGCUAGCAUUGUAUUUAGUUA | 0.00698 ± 0.0024 |
| UCCUGGAUGAGCUAGCAUAGUAUUUAGAUA | 0.00381 ± 0.0027 |
| AGGACCUACAGCUUGCAUAGUAUAUAGAUA | 0.0149 ± 0.0051 |
